One assay has as its system HSkMC. Briefly: cytotoxicity call (relative viability < 0.9). As to conditions: 10 µM.
The subject of the next assay is HepG2. Description: cytotoxicity call (relative viability < 0.9). The conditions noted are these: 10 µM.
The next assay concerns S. aureus RN4220. Description: growth inhibition call (relative growth <= 0.2). As to conditions: 50 µM.

Some of the results follow.

With `O=C(CCCCCCC(=O)Nc1ccc([C@H]2C[C@H](c3ccccc3)O[C@H](c3ccncc3)O2)cc1)NO`, the cytotoxicity call in the assay on HSkMC and in the assay on HepG2 was “inactive” throughout. The growth inhibition call in the assay on S. aureus RN4220 was “inactive”.
For `COc1ccc(CN(C)C[C@@H]2Oc3c(NC(=O)c4cc(C)nn4C)cccc3C(=O)N([C@@H](C)CO)C[C@H]2C)cc1`, the cytotoxicity call in the assay with HSkMC and in the assay on HepG2 was “inactive” each time. Further, the growth inhibition call in the assay on S. aureus RN4220 is “inactive”.
As for `C[C@@H]1CN([C@H](C)CO)C(=O)Cc2cc(NC(=O)Cn3cnnn3)ccc2O[C@@H]1CN(C)Cc1ccccc1`, the cytotoxicity call with HSkMC and in the assay with HepG2 was “inactive” in each case. The growth inhibition call in the assay with S. aureus RN4220 was “inactive”.
As for `COc1ccc(C(=O)Nc2ccc3c(c2)C(=O)N(C)[C@H]2CC[C@@H](CC(=O)NCC4CC4)O[C@H]2CO3)cc1`, the cytotoxicity call in the assay with HSkMC and with HepG2 was “inactive” in each case. Moreover, the growth inhibition call with S. aureus RN4220 was “inactive”.
On to `Cc1ccc(S(=O)(=O)Nc2ccc3c(c2)C(=O)N([C@@H](C)CO)C[C@@H](C)[C@@H](CN(C)Cc2ccc(Oc4ccccc4)cc2)O3)cc1`, for which the cytotoxicity call in the assay with HSkMC and in the assay on HepG2 was “active” each time. Also, the growth inhibition call with S. aureus RN4220 is “inactive”.
Consider `C[C@H](CO)N1C[C@H](C)[C@H](CN(C)C(=O)Nc2cccc3ccccc23)Oc2ccc(NC(=O)Nc3ccc(F)cc3)cc2C1=O`, for which the cytotoxicity call in the assay on HSkMC and in the assay on HepG2 was “inactive” in each case. Further, the growth inhibition call in the assay on S. aureus RN4220 is “inactive”.
As to `C[C@H]1CN([C@@H](C)CO)C(=O)c2cc(NS(=O)(=O)c3cn(C)cn3)ccc2O[C@H]1CN(C)S(=O)(=O)c1ccc(F)cc1`, the cytotoxicity call in the assay on HSkMC and in the assay on HepG2 was “inactive” each time. Moreover, the growth inhibition call in the assay on S. aureus RN4220 was “inactive”.
As for `C[C@H](CO)N1C[C@H](C)[C@H](CN(C)C(=O)Nc2cccc3ccccc23)Oc2ccc(NS(=O)(=O)c3cccs3)cc2CC1=O`, the cytotoxicity call in the assay with HSkMC and in the assay with HepG2 was “inactive” each time. In addition, in the assay on S. aureus RN4220, the growth inhibition call is “inactive”.
In the case of `O=C(C[C@@H]1CC[C@H]2[C@@H](COC[C@H](O)CN2C(=O)Nc2ccc(C(F)(F)F)cc2)O1)NCc1ccncn1`, the cytotoxicity call in the assay with HSkMC and in the assay on HepG2 was “inactive” each time. Further, in the assay with S. aureus RN4220, the growth inhibition call is “inactive”.
For the compound `COc1ccc(S(=O)(=O)N(C)C[C@@H]2OCCCC[C@H](C)Oc3ccc(NC(=O)Nc4c(C)noc4C)cc3C(=O)N([C@H](C)CO)C[C@@H]2C)cc1`, the cytotoxicity call in the assay with HSkMC and in the assay on HepG2 was “inactive” throughout. For the same compound, the growth inhibition call in the assay with S. aureus RN4220 is “inactive”.
For `Cc1ccc(S(=O)(=O)Nc2cccc3c2O[C@H](CN(C)S(=O)(=O)c2cn(C)cn2)[C@H](C)CN([C@H](C)CO)C3=O)cc1`, the cytotoxicity call in the assay with HSkMC and in the assay with HepG2 was “inactive” throughout. The growth inhibition call in the assay on S. aureus RN4220 was “inactive”.
Turning to `Cc1cc(C(=O)Nc2cccc3c2O[C@H](CN(C)C(=O)Nc2c(C)noc2C)[C@@H](C)CN([C@H](C)CO)C3=O)n(C)n1`, the cytotoxicity call in the assay with HSkMC and in the assay on HepG2 was “inactive” each time. Also, the growth inhibition call in the assay on S. aureus RN4220 was “inactive”.
Consider `C[C@H](CO)N1C[C@H](C)[C@@H](CN(C)Cc2ccc(C(=O)Nc3ccccc3N)cc2)Oc2ccc(NC(=O)Nc3ccc(F)cc3)cc2CC1=O`, for which the cytotoxicity call with HSkMC and in the assay with HepG2 was “inactive” throughout. Further, the growth inhibition call with S. aureus RN4220 was “inactive”.
On to `C[C@@H]1CCCCO[C@@H](CN(C)S(=O)(=O)c2ccc(Cl)cc2)[C@H](C)CN([C@H](C)CO)C(=O)c2cc(NC(=O)c3ccccc3)ccc2O1`, for which the cytotoxicity call with HSkMC and with HepG2 was “inactive” each time. For the same compound, the growth inhibition call in the assay on S. aureus RN4220 was “inactive”.
For the compound `O=C(O)c1ccccc1`, the cytotoxicity call in the assay on HSkMC and in the assay on HepG2 was “inactive” in each case. Further, in the assay with S. aureus RN4220, the growth inhibition call was “inactive”.
Take `COc1cc(/C=C/C(=O)C2=C(NCCc3ccccc3)S[C@H](c3ccc(O)c(OC)c3)CC2=O)ccc1O`: the cytotoxicity call with HSkMC and with HepG2 was “inactive” throughout. In the assay with S. aureus RN4220, the growth inhibition call was “inactive”.
For `C[C@@H]1CN([C@H](C)CO)C(=O)c2cccc(NC(=O)c3cnccn3)c2O[C@H]1CN(C)CC1CCCCC1`, the cytotoxicity call in the assay on HSkMC and in the assay with HepG2 was “inactive” throughout. Also, the growth inhibition call in the assay with S. aureus RN4220 was “inactive”.
For `CCS(=O)(=O)N1C[C@]2(CCN(CC2)S(=O)(=O)c2ccccc2)c2c(n(c3cc(ccc23)OC)C)[C@@H]1CO`, the cytotoxicity call in the assay on HSkMC and with HepG2 was “inactive” throughout. In addition, in the assay with S. aureus RN4220, the growth inhibition call is “inactive”.
With `Brc1ccc(-c2ccc(C3CCCCC3)cn2)cc1`, the cytotoxicity call in the assay with HSkMC and in the assay with HepG2 was “inactive” in each case. Besides, the growth inhibition call in the assay with S. aureus RN4220 was “inactive”.
As for `CC(C)=CCCC(C)CC=O` (centres undefined), the cytotoxicity call in the assay with HSkMC and with HepG2 was “inactive” each time. For the same compound, the growth inhibition call in the assay with S. aureus RN4220 was “inactive”.
Turning to `Cc1ccc(S(=O)(=O)N(C)C[C@@H]2OCCCC[C@@H](C)Oc3ccc(NC(=O)Cc4ccccc4)cc3C(=O)N([C@@H](C)CO)C[C@@H]2C)cc1`, the cytotoxicity call in the assay on HSkMC and with HepG2 was “inactive” throughout. In addition, in the assay on S. aureus RN4220, the growth inhibition call was “inactive”.
In the case of `COc1ccc(-c2c(C)oc3ccc(Cl)cc23)cc1`, the cytotoxicity call in the assay on HSkMC was “inactive”. Further, in the assay on HepG2, the cytotoxicity call was “active”. Also, the growth inhibition call in the assay with S. aureus RN4220 was “inactive”.
In the case of `C[C@H](CO)N1C[C@H](C)[C@@H](CN(C)Cc2ccccc2F)Oc2cc(C#CCN(C)C)ccc2S1(=O)=O`, the cytotoxicity call in the assay on HSkMC and with HepG2 was “inactive” throughout. Further, the growth inhibition call with S. aureus RN4220 is “inactive”.
Take `NCC[C@@H]1CC[C@H](NC(=O)C2CC2)[C@@H](CO)O1`: the cytotoxicity call in the assay with HSkMC and in the assay with HepG2 was “inactive” in each case. Further, the growth inhibition call in the assay on S. aureus RN4220 is “inactive”.
As for `O=C(O)[C@@H]1[O][Sb]2([OH])([O][Sb]34([OH])[O][C@H]([C@H](O)CO)[C@H]([O]3)[C@H](C(=O)O)[O]4)[O][C@H]([C@H](O)CO)[C@@H]1[O]2`, the cytotoxicity call in the assay with HSkMC and in the assay on HepG2 was “inactive” each time. The growth inhibition call in the assay with S. aureus RN4220 was “inactive”.
On to `Cc1ccc(S(=O)(=O)N(C)C[C@@H]2OCCCC[C@@H](C)Oc3ccc(NC(=O)Cc4ccccc4)cc3C(=O)N([C@H](C)CO)C[C@@H]2C)cc1`, for which the cytotoxicity call with HSkMC and in the assay with HepG2 was “inactive” each time. In addition, in the assay on S. aureus RN4220, the growth inhibition call is “inactive”.
Take `C[C@H]1CCCCO[C@@H](CN(C)C(=O)Nc2ccc(C(F)(F)F)cc2)[C@@H](C)CN([C@@H](C)CO)C(=O)c2cc(N(C)C)ccc2O1`: the cytotoxicity call in the assay on HSkMC and in the assay on HepG2 was “inactive” each time. In addition, in the assay on S. aureus RN4220, the growth inhibition call is “inactive”.
`COCCOC(=O)N1C(=O)[C@@]2(c3cc(C#CCC(C(=O)OC)C(=O)OC)ccc31)[C@H](c1ccccc1OCCO)N1[C@H](c3ccccc3)[C@H](c3ccccc3)OC(=O)[C@H]1[C@@H]2C(=O)Nc1nc2ccccc2s1`: the cytotoxicity call in the assay on HSkMC (human skeletal muscle cells) and with HepG2 was “inactive” in each case. In addition, the growth inhibition call with S. aureus RN4220 is “inactive”.

(Values after the antibiotic and cytotoxicity screens of Wong et al. (2023).)
